The data scatter; read single values as rough.
Experiment: amyloid nucleation score relative to library mode (yeast Sup35 reporter selection) (log enrichment difference); higher = more amyloid nucleation; sequences are the first 22 residues of the Bri2 peptide extended by up to 12 random residues
Conditions: random library (experiment): 1;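 active = nucleation score significantly above 0 at FDR 0.05; inactive = not significantly above 0 or absent from output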
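Further: [psi-pin-] Saccharomyces cerevisiae expressing SupN fusions, induced by 100 µM Cu2SO4, selected 7 d at 30 °C without adenine and uracil, scored by deep sequencing of output versus input.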

Sequence	amyloid nucleation score
EASNCFAIRHFENKFAVETLICFLARGGRLASST	inactive
EASNCFAIRHFENKFAVETLICRRVLLLYLCGVT	inactive
EASNCFAIRHFENKFAVETLICLWWVRLVDDFLW	inactive
EASNCFAIRHFENKFAVETLICGGQSWLVYRDAV	-0.54
EASNCFAIRHFENKFAVETLICRRRKCADERTRA	0.335
EASNCFAIRHFENKFAVETLICLFWRV	inactive
EASNCFAIRHFENKFAVETLICHIP	-0.129
EASNCFAIRHFENKFAVETLICASLWSGSACLSS	0.451
EASNCFAIRHFENKFAVETLICGWSFMPCLCRSG	2.6
EASNCFAIRHFENKFAVETLICDVKGGR	inactive
EASNCFAIRHFENKFAVETLICWNCRR	8.86
EASNCFAIRHFENKFAVETLICPPARGLAVSRLC	inactive
EASNCFAIRHFENKFAVETLICTLGLCRWVVGSS	inactive
EASNCFAIRHFENKFAVETLICGIMCLRCPGQIL	3.46
EASNCFAIRHFENKFAVETLICMCRLYCSWGRTR	inactive
EASNCFAIRHFENKFAVETLICVLHARVEGPAPF	3.5
EASNCFAIRHFENKFAVETLICLTIRVVMRGQYI	inactive
EASNCFAIRHFENKFAVETLICTALMCSRVARAK	-0.708
EASNCFAIRHFENKFAVETLICIVAYIYAFEGTE	inactive
EASNCFAIRHFENKFAVETLICVSTIFSGRRAYG	inactive

Sequence	amyloid nucleation score
EASNCFAIRHFENKFAVETLICPHIYAP	inactive
EASNCFAIRHFENKFAVETLICELTCLEISRQGM	3.74
EASNCFAIRHFENKFAVETLICVFMGGFSCRNYG	4.37
EASNCFAIRHFENKFAVETLICNVGWLR	4.54
EASNCFAIRHFENKFAVETLICCQIATLVTLAIL	inactive
EASNCFAIRHFENKFAVETLICGSPNFQSYRIRH	inactive
EASNCFAIRHFENKFAVETLICRYANGSQTWQVQ	inactive
EASNCFAIRHFENKFAVETLICWAL	5.59
EASNCFAIRHFENKFAVETLICFALSVRGCLRQL	inactive
EASNCFAIRHFENKFAVETLICHCSFVLSQFVQD	2.55
EASNCFAIRHFENKFAVETLICLGNTVGTSMRGD	6.36
EASNCFAIRHFENKFAVETLICKMVGDR	inactive
EASNCFAIRHFENKFAVETLICIYRMFQHSGWLR	inactive
EASNCFAIRHFENKFAVETLICLCCQARSEAKDY	9.67
EASNCFAIRHFENKFAVETLICFFVVFLYDIRSL	3.97
EASNCFAIRHFENKFAVETLICGSRSGRRARTRG	inactive
EASNCFAIRHFENKFAVETLICRQEWDGSWVWQ	1.99
EASNCFAIRHFENKFAVETLICWDKDWLSSGVAG	inactive
EASNCFAIRHFENKFAVETLICVIDLNT	4.39
EASNCFAIRHFENKFAVETLICPWHPSSSASGRE	inactive

Sequence	amyloid nucleation score
EASNCFAIRHFENKFAVETLICVRSCLGWVVGGW	1.31
EASNCFAIRHFENKFAVETLICCSVCEHPGHSRE	8.12
EASNCFAIRHFENKFAVETLICCPRSTKLRVEYS	inactive
EASNCFAIRHFENKFAVETLICGSKL	inactive
EASNCFAIRHFENKFAVETLICAFWAAWAALGRG	inactive
EASNCFAIRHFENKFAVETLICRTYGDPILSGLR	inactive
EASNCFAIRHFENKFAVETLICVKCRSGGEQVGM	3.55
EASNCFAIRHFENKFAVETLICGEQLRCVVLPVR	inactive
EASNCFAIRHFENKFAVETLICGTLR	inactive
EASNCFAIRHFENKFAVETLICIHAYSHVRMLSE	inactive
EASNCFAIRHFENKFAVETLICRRYDMEVFWLAQ	0.00985
EASNCFAIRHFENKFAVETLICACVGRIVWQQLR	inactive
EASNCFAIRHFENKFAVETLICFGPPSAMPTAHY	4.45
EASNCFAIRHFENKFAVETLICLPHGV	inactive
EASNCFAIRHFENKFAVETLICGPCEWMPSSREH	3.95
EASNCFAIRHFENKFAVETLICRSQ	3.78
EASNCFAIRHFENKFAVETLICMGQYLNSMCCHR	-0.0572
EASNCFAIRHFENKFAVETLICMVPAVHKRGIFW	inactive
EASNCFAIRHFENKFAVETLICYQ	2.32
EASNCFAIRHFENKFAVETLICAFL	5.21

— the supplement of paper PMC12067230
